Laboratory results reported in the supplement of paper PMC12217912.
This is one part of the list. Sequences were assembled here from the parent chain. Inactive controls read about 0.05.

B1: TEV protease; numbered along this chain (parent)
chain: MGESLFKGPRDYNPISSSICHLTNESDGHTTSLYGIGFGPFIITNKHLFRRNNGTLVVQSLHGVFKVKDTTTLQQHLVDGRDMIIIRMPKDFPPFPQKLKFREPQREERICLVTTNFQTKSMSSMVSDTSCTFPSGDGIFWKHWIQTKDGQCGSPLVSTRDGFIVGIHSASNFTNTNNYFTSVPKNFMELLTNQEAQQWVSGWRLNADSVLWGGHKVFMVKPEEPFQPVKEATQL

Variants of: B1
Assay: raw area under fraction-flipped curve 0-4 h after induction (AUC4h, not background-subtracted), DNA-recorder readout of cleavage of the substrate (dimensionless); higher = more cleavage of the substrate by the protease variant
Details: temperature: 34 °C; time window: 0-4 h after rhamnose induction
Experimental: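 In vivo DNA recorder in E. coli TOP10(DE3) ΔrhaA at 34 °C. Each TEVp single-site mutant (parent TEVp 0) is paired with a single-site variant of the 7-mer TEVs (canonical ENLYFQ|S). The substrate sits between flexible linkers in a Bxb1-sfGFP-TEVs-SsrA fusion, so cleavage stabilises Bxb1 and speeds flipping of a recombination array, read by NGS. The value is the raw area under the fraction-flipped curve over 0-4 h after rhamnose induction (AUC4h), with ≥20 reads per time point. It is not background-subtracted; inactive controls average about 0.047.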
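Note: Bxb1 expression induced with 0.2% (w/v) L-rhamnose at OD600 near 0.5, cultures sampled hourly, flipped fraction per protease–substrate barcode pair counted by paired-end Illumina sequencing.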

| Variant | area with substrate ANLYFQS | area with substrate FNLYFQS | area with substrate KNLYFQS | area with substrate LNLYFQS | area with substrate MNLYFQS | area with substrate PNLYFQS | area with substrate YNLYFQS | area with substrate NNLYFQS | area with substrate WNLYFQS | area with substrate GNLYFQS |
| --- | --- | --- | --- | --- | --- | --- | --- | --- | --- | --- |
| K142Y | 0.0837 | 0.0551 | 0.0958 | 0.0564 | 0.0604 | 0.0605 | 0.0559 |  |  |  |
| S209I | 0.0652 |  |  | 0.0591 | 0.0643 | 0.0723 | 0.0545 | 0.0727 | 0.151 |  |
| L235H | 0.0668 |  | 0.0487 |  |  | 0.0733 |  | 0.0807 | 0.0716 | 0.0368 |
| R106P | 0.0694 | 0.0548 | 0.0624 |  | 0.0385 |  | 0.0594 | 0.0636 |  |  |
| R106K | 0.0624 |  | 0.0575 |  | 0.0517 | 0.0707 | 0.0864 |  |  | 0.0769 |
| Q74S | 0.0585 | 0.0797 |  | 0.102 |  | 0.0683 | 0.0707 |  | 0.0625 |  |
| K66S | 0.0681 |  | 0.0573 | 0.0727 | 0.0322 |  | 0.0548 |  | 0.0675 | 0.0542 |
| I167G | 0.0402 |  |  |  |  | 0.0539 | 0.0522 | 0.0515 | 0.0372 | 0.0509 |
| T115G | 0.0702 |  |  |  |  |  |  |  |  | 0.108 |
| G166C | 0.0537 | 0.0511 | 0.0491 | 0.037 | 0.0573 | 0.0534 | 0.039 | 0.0556 | 0.0478 |  |
| W212E | 0.0523 |  | 0.0598 | 0.0322 | 0.0619 |  | 0.0535 | 0.0647 | 0.0646 |  |
| Y12V | 0.0713 | 0.0939 | 0.0704 | 0.0447 |  | 0.0748 |  | 0.0511 | 0.0608 | 0.0527 |
| N186V | 0.0474 |  | 0.0743 |  | 0.0809 | 0.0834 | 0.0482 |  | 0.0563 | 0.0612 |
| I167E | 0.0707 |  |  |  |  |  |  |  | 0.0463 |  |
| F38R | 0.0522 | 0.0322 | 0.0623 | 0.0715 | 0.0705 | 0.0641 | 0.0543 |  | 0.0529 |  |
| F65A | 0.0332 | 0.067 |  | 0.0591 | 0.0541 | 0.0711 |  | 0.0777 | 0.0532 |  |
| T174Y | 0.0412 |  | 0.0683 |  |  | 0.0776 | 0.05 |  | 0.0544 | 0.0674 |

| Variant | area with substrate ANLYFQS | area with substrate FNLYFQS | area with substrate KNLYFQS | area with substrate LNLYFQS | area with substrate MNLYFQS | area with substrate PNLYFQS | area with substrate YNLYFQS | area with substrate NNLYFQS | area with substrate WNLYFQS | area with substrate GNLYFQS |
| --- | --- | --- | --- | --- | --- | --- | --- | --- | --- | --- |
| A207C | 0.0623 |  |  | 0.0641 |  | 0.0712 | 0.0657 | 0.0699 | 0.0677 | 0.0662 |
| S121T | 0.0627 |  |  | 0.0738 |  |  |  |  | 0.0633 |  |
| N186A | 0.0842 | 0.0589 | 0.0579 |  |  |  |  |  | 0.0639 |  |
| F187P | 0.0653 |  | 0.0218 | 0.0656 | 0.0445 |  | 0.0446 |  | 0.0548 |  |
| Q197Y | 0.062 |  | 0.108 |  |  |  |  | 0.0647 |  |  |
| T55V | 0.0492 | 0.0493 | 0.0104 | 0.053 | 0.1 | 0.0635 | 0.0622 | 0.0661 | 0.0506 | 0.0746 |
| E25I | 0.0612 | 0.075 | 0.0514 | 0.0581 | 0.0766 | 0.0526 | 0.0578 |  | 0.0552 |  |
| I164F | 0.0721 |  |  | 0.0768 | 0.045 |  | 0.0555 | 0.0447 | 0.0579 |  |
| L77P | 0.0625 |  | 0.069 | 0.0638 |  |  |  | 0.079 | 0.0601 |  |
| H215A | 0.0618 |  | 0.0429 |  |  | 0.0582 |  | 0.0604 | 0.0707 | 0.0645 |
| H168P | 0.042 |  | 0.0483 | 0.0589 | 0.0358 | 0.0552 | 0.0452 |  |  |  |
| Y34L | 0.0837 | 0.0702 |  | 0.0581 |  | 0.0676 | 0.0576 |  |  | 0.0522 |
| Y12A | 0.0511 | 0.0555 | 0.0706 |  |  | 0.0556 | 0.0392 | 0.0626 | 0.0605 | 0.0555 |
| T55Q | 0.0799 | 0.0619 | 0.0645 | 0.0534 | 0.0741 | 0.0659 |  | 0.0732 | 0.0567 | 0.0594 |
| G214C | 0.0691 | 0.0667 |  |  |  |  |  |  |  | 0.0757 |
| T31Q | 0.0587 | 0.062 | 0.0521 | 0.0567 | 0.067 |  | 0.0517 |  | 0.0588 | 0.065 |
| L5M | 0.0616 | 0.0663 |  | 0.0524 |  | 0.0704 | 0.061 | 0.0779 | 0.0624 | 0.0839 |

Same assay, conditions: temperature: 34 °C; time window: 0-4 h after rhamnose induction

| Variant | area with substrate INLYFQS | area with substrate SNLYFQS | area with substrate TNLYFQS | area with substrate VNLYFQS | area with substrate HNLYFQS | area with substrate DNLYFQS | area with substrate RNLYFQS | area with substrate QNLYFQS |
| --- | --- | --- | --- | --- | --- | --- | --- | --- |
| L235H | 0.0724 | 0.0705 | 0.0279 | 0.0617 |  |  |  |  |
| R106P |  |  | 0.059 |  | 0.0454 |  |  |  |
| R106K |  | 0.0632 |  |  | 0.0393 |  |  |  |
| Q74S | 0.046 | 0.0729 | 0.0584 | 0.0748 |  | 0.0892 | 0.0498 |  |
| K66S | 0.0346 |  |  |  | 0.071 |  |  |  |
| I167G |  | 0.0475 |  |  |  |  |  |  |
| T115G | 0.0645 |  |  | 0.0894 |  |  |  |  |
| G166C | 0.0619 |  | 0.0475 | 0.0512 | 0.045 |  | 0.0636 | 0.0398 |
| W212E | 0.0612 | 0.0647 | 0.0504 | 0.0527 | 0.0542 |  | 0.0849 | 0.0839 |
| Y12V |  | 0.0662 | 0.0644 | 0.0669 | 0.055 |  |  |  |
| N186V |  | 0.0596 | 0.065 |  | 0.0641 |  |  | 0.0626 |
| I167E | 0.0546 |  |  | 0.0664 |  |  | 0.0464 |  |
| F38R | 0.0549 | 0.0625 | 0.0617 | 0.0472 | 0.0496 |  |  |  |
| F65A | 0.0534 | 0.0625 | 0.0836 |  | 0.0611 |  |  |  |
| T174Y |  | 0.0538 | 0.066 |  | 0.0688 |  |  |  |
| A207C |  |  | 0.0643 |  | 0.0639 |  |  |  |

| Variant | area with substrate INLYFQS | area with substrate SNLYFQS | area with substrate TNLYFQS | area with substrate VNLYFQS | area with substrate HNLYFQS | area with substrate DNLYFQS | area with substrate RNLYFQS | area with substrate QNLYFQS |
| --- | --- | --- | --- | --- | --- | --- | --- | --- |
| S121T | 0.0722 |  |  |  |  |  |  |  |
| N186A | 0.0747 |  | 0.0717 | 0.0499 | 0.0541 |  |  |  |
| F187P | 0.0361 |  | 0.0572 | 0.0597 | 0.056 |  |  |  |
| Q197Y |  |  | 0.0508 |  |  |  |  |  |
| T55V |  | 0.0654 | 0.064 | 0.0763 | 0.0798 |  | 0.0784 |  |
| E25I | 0.0597 | 0.0585 | 0.0614 |  |  |  |  | 0.0586 |
| I164F |  | 0.0428 |  |  |  |  |  |  |
| L77P | 0.0799 |  | 0.0616 |  | 0.0623 |  |  |  |
| H215A |  | 0.0638 | 0.0503 | 0.1 | 0.0578 |  | 0.0483 |  |
| H168P |  | 0.0483 |  | 0.0429 | 0.046 |  |  | 0.0586 |
| Y34L | 0.0591 | 0.068 | 0.0651 |  | 0.0734 |  |  |  |
| Y12A | 0.0691 | 0.0312 | 0.0773 | 0.0658 | 0.069 |  | 0.0553 | 0.0583 |
| T55Q | 0.0616 | 0.0397 | 0.0743 | 0.0709 | 0.0565 | 0.0521 |  |  |
| G214C | 0.0534 |  | 0.065 |  |  |  |  |  |
| T31Q |  | 0.0673 | 0.0613 |  | 0.0476 |  | 0.0724 |  |
| L5M | 0.114 |  | 0.0732 | 0.0707 | 0.068 |  |  |  |
